# Source: the supplement of paper PMC8728848
# The other results are listed elsewhere or left out.
# B1: PX9961U-pdi-543-24-543 (Parabacteroides distasonis) (protein)
# chain: EEPVGEFLPGQVESEENIEGIVTGAYAVLDGYYASDAINSGCSNWQFGDVVSDDAYKGGGGTGDQNQIHLMEIFNANPTGIDFEARWAALYEGIKRCNQAIRLLNGSEVKNKEQRLAEMRFLRGHYYFNLKIIYNQIPWIDETLVDPNEYNKKSNIEFSSDQLWEKILEEFSAAYKVLPESQADYGRPTKMAARAYMAKVYLYQSKWKECLEACDEVIQSGKYELFPDFRNVFLPENDNCSEIIFAIQLSINDGSPNNENGSYGDRLLPPGGPYPVYGFLRPTQNLVNAYKTDVKGLPYNDGKDVSENDYVDVRLDHTLARPNIPFMDVQLYDWTPREASVYGPYSPKKRLVSLNSTYYSPIWPYVNALNFYVIRYADLLLWRAEAAIETGDLETGRKYINMIRERAKNTQHVKTMDQSQDAANYKVGVYDEPFKSKNEAVQALRMERRLEMAHEGIRFFDLVRWGVADEVINAYIAKEKVFRSHLQNAHFVKGKHEYFPIPQSMIDICGTEVMKQNPGY
# Assays:
# Experiment in all cases: glycan array binding signal (z-score within array); higher = stronger binding
# Settings in all cases: glycan notation: IUPAC condensed, linker removed
# [1] = molecular target: Gal(b1-4)GlcNAc(b1-2)[Gal(b1-4)GlcNAc(b1-6)]Man(a1-6)[GlcNAc(b1-4)][Gal(b1-4)GlcNAc(b1-2)Man(a1-3)]Man(b1-4)GlcNAc(b1-4)GlcNAc
# Outline: (§1)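 Glycan array data were curated from 3228 arrays in the Consortium for Functional Glycomics database and kept only where the protein sequence was available. Glycan names were converted to IUPAC-condensed notation, and columns mapping to the same glycan were averaged. The binding signal is a within-array Z-score, averaged across arrays of the same protein sequence at different concentrations or buffers and across linkers. Negative Z-scores can be read as non-binding.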
# [2] = molecular target: Gal(b1-4)GlcNAc(b1-2)[Gal(b1-4)GlcNAc(b1-6)]Man(a1-6)[GlcNAc(b1-4)][Gal(b1-4)GlcNAc(b1-2)[Gal(b1-4)GlcNAc(b1-4)]Man(a1-3)]Man(b1-4)GlcNAc(b1-4)[Fuc(a1-6)]GlcNAc
# Outline: as §1
# [3] = molecular target: Gal(b1-4)GlcNAc(b1-3)Gal(b1-3)GalNAc
# Outline: as §1
# [4] = molecular target: Gal(b1-4)GlcNAc(b1-3)Gal(b1-3)GlcNAc
# Outline: as §1
# [5] = molecular target: Gal(b1-4)GlcNAc(b1-3)Gal(b1-4)Glc
# Outline: as §1
# [6] = molecular target: Gal(b1-4)GlcNAc(b1-3)Gal(b1-4)GlcNAc
# Outline: as §1
# [7] = molecular target: Gal(b1-4)GlcNAc(b1-3)Gal(b1-4)GlcNAc(b1-2)Man(a1-3)[Gal(b1-4)GlcNAc(b1-3)Gal(b1-4)GlcNAc(b1-2)Man(a1-6)]Man(b1-4)GlcNAc(b1-4)GlcNAc
# Outline: as §1
# [8] = molecular target: Gal(b1-4)GlcNAc(b1-3)Gal(b1-4)GlcNAc(b1-2)Man(a1-3)[Gal(b1-4)GlcNAc(b1-3)Gal(b1-4)GlcNAc(b1-2)Man(a1-6)]Man(b1-4)GlcNAc(b1-4)[Fuc(a1-6)]GlcNAc
# Outline: as §1
# [9] = molecular target: Gal(b1-4)GlcNAc(b1-3)Gal(b1-4)GlcNAc(b1-2)[Gal(b1-4)GlcNAc(b1-3)Gal(b1-4)GlcNAc(b1-6)]Man(a1-6)[Gal(b1-4)GlcNAc(b1-3)Gal(b1-4)GlcNAc(b1-2)Man(a1-3)]Man(b1-4)GlcNAc(b1-4)GlcNAc
# Outline: as §1
# [10] = molecular target: Gal(b1-4)GlcNAc(b1-3)Gal(b1-4)GlcNAc(b1-2)[Gal(b1-4)GlcNAc(b1-3)Gal(b1-4)GlcNAc(b1-6)]Man(a1-6)[Gal(b1-4)GlcNAc(b1-3)Gal(b1-4)GlcNAc(b1-2)Man(a1-3)]Man(b1-4)GlcNAc(b1-4)[Fuc(a1-6)]GlcNAc
# Outline: as §1
# [11] = molecular target: Gal(b1-4)GlcNAc(b1-3)Gal(b1-4)GlcNAc(b1-3)Gal(b1-4)GlcNAc
# Outline: as §1
# [12] = molecular target: Gal(b1-4)GlcNAc(b1-3)Gal(b1-4)GlcNAc(b1-3)Gal(b1-4)GlcNAc(b1-2)Man(a1-3)[Gal(b1-4)GlcNAc(b1-3)Gal(b1-4)GlcNAc(b1-3)Gal(b1-4)GlcNAc(b1-2)Man(a1-6)]Man(b1-4)GlcNAc(b1-4)GlcNAc
# Outline: as §1
# [13] = molecular target: Gal(b1-4)GlcNAc(b1-3)Gal(b1-4)GlcNAc(b1-3)Gal(b1-4)GlcNAc(b1-2)Man(a1-3)[Gal(b1-4)GlcNAc(b1-3)Gal(b1-4)GlcNAc(b1-3)Gal(b1-4)GlcNAc(b1-2)Man(a1-6)]Man(b1-4)GlcNAc(b1-4)[Fuc(a1-6)]GlcNAc
# Outline: as §1
# [14] = molecular target: Gal(b1-4)GlcNAc(b1-3)Gal(b1-4)GlcNAc(b1-3)Gal(b1-4)GlcNAc(b1-2)[Gal(b1-4)GlcNAc(b1-3)Gal(b1-4)GlcNAc(b1-3)Gal(b1-4)GlcNAc(b1-6)]Man(a1-6)[Gal(b1-4)GlcNAc(b1-3)Gal(b1-4)GlcNAc(b1-3)Gal(b1-4)GlcNAc(b1-2)Man(a1-3)]Man(b1-4)GlcNAc(b1-4)[Fuc(a1-6)]GlcNAc
# Outline: as §1
# [15] = molecular target: Gal(b1-4)GlcNAc(b1-3)Gal(b1-4)GlcNAc(b1-3)Gal(b1-4)GlcNAc(b1-3)Gal(b1-4)GlcNAc(b1-2)Man(a1-3)[Gal(b1-4)GlcNAc(b1-3)Gal(b1-4)GlcNAc(b1-3)Gal(b1-4)GlcNAc(b1-3)Gal(b1-4)GlcNAc(b1-2)Man(a1-6)]Man(b1-4)GlcNAc(b1-4)GlcNAc
# Outline: as §1
# [16] = molecular target: Gal(b1-4)GlcNAc(b1-3)Gal(b1-4)GlcNAc(b1-3)Gal(b1-4)GlcNAc(b1-3)Gal(b1-4)GlcNAc(b1-2)Man(a1-3)[Gal(b1-4)GlcNAc(b1-3)Gal(b1-4)GlcNAc(b1-3)Gal(b1-4)GlcNAc(b1-3)Gal(b1-4)GlcNAc(b1-2)Man(a1-6)]Man(b1-4)GlcNAc(b1-4)[Fuc(a1-6)]GlcNAc
# Outline: as §1
# [17] = molecular target: Gal(b1-4)GlcNAc(b1-3)Gal(b1-4)GlcNAc(b1-3)Gal(b1-4)GlcNAc(b1-3)Gal(b1-4)GlcNAc(b1-2)[Gal(b1-4)GlcNAc(b1-3)Gal(b1-4)GlcNAc(b1-3)Gal(b1-4)GlcNAc(b1-3)Gal(b1-4)GlcNAc(b1-6)]Man(a1-6)[Gal(b1-4)GlcNAc(b1-3)Gal(b1-4)GlcNAc(b1-3)Gal(b1-4)GlcNAc(b1-3)Gal(b1-4)GlcNAc(b1-2)Man(a1-3)]Man(b1-4)GlcNAc(b1-4)[Fuc(a1-6)]GlcNAc
# Outline: as §1
# [18] = molecular target: Gal(b1-4)GlcNAc(b1-3)Gal(b1-4)GlcNAc(b1-3)Gal(b1-4)GlcNAc(b1-3)Gal(b1-4)GlcNAc(b1-3)Gal(b1-4)GlcNAc(b1-2)Man(a1-3)[Gal(b1-4)GlcNAc(b1-3)Gal(b1-4)GlcNAc(b1-3)Gal(b1-4)GlcNAc(b1-3)Gal(b1-4)GlcNAc(b1-3)Gal(b1-4)GlcNAc(b1-2)Man(a1-6)]Man(b1-4)GlcNAc(b1-4)GlcNAc
# Outline: as §1
# [19] = molecular target: Gal(b1-4)GlcNAc(b1-3)Gal(b1-4)GlcNAc(b1-3)Gal(b1-4)GlcNAc(b1-3)Gal(b1-4)GlcNAc(b1-3)Gal(b1-4)GlcNAc(b1-2)Man(a1-3)[Gal(b1-4)GlcNAc(b1-3)Gal(b1-4)GlcNAc(b1-3)Gal(b1-4)GlcNAc(b1-3)Gal(b1-4)GlcNAc(b1-3)Gal(b1-4)GlcNAc(b1-2)Man(a1-6)]Man(b1-4)GlcNAc(b1-4)[Fuc(a1-6)]GlcNAc
# Outline: as §1
binder,measurement,setting,value
B1,glycan array binding signal (z-score),[1],2.65
same,glycan array binding signal (z-score),[2],-0.304
same,glycan array binding signal (z-score),[3],-0.235
same,glycan array binding signal (z-score),[4],-0.258
same,glycan array binding signal (z-score),[5],-0.223
same,glycan array binding signal (z-score),[6],-0.398
same,glycan array binding signal (z-score),[7],-0.05
same,glycan array binding signal (z-score),[8],0.935
same,glycan array binding signal (z-score),[9],0.406
same,glycan array binding signal (z-score),[10],2.13
same,glycan array binding signal (z-score),[11],-0.214
same,glycan array binding signal (z-score),[12],0.244
same,glycan array binding signal (z-score),[13],2.73
same,glycan array binding signal (z-score),[14],6.31
same,glycan array binding signal (z-score),[15],2.22
same,glycan array binding signal (z-score),[16],1.2
same,glycan array binding signal (z-score),[17],3.38
same,glycan array binding signal (z-score),[18],0.683
same,glycan array binding signal (z-score),[19],7.11
